{"source": "PubChem BioAssay AID602310", "about": "(National Center for Advancing Translational Sciences (NCATS), 2012)", "note": "Several values for one entry are separate records, joined by “and”; a condition that tells them apart may be missing. Equal entries are not always repeated. Hit rate of the full screen: of about 410,000 compounds, about 310 (0.076%) were called active. Inconclusive results, whose numbers are uncertain, are shown with a selection of clear calls. The call rests on the fitted dose curve; in most records, active means well fitted curve in the direction sought with a large enough effect; inconclusive means small, poorly fitted or top-dose-only effect; inactive means flat fitted curve, though single readings scatter. Potencies beside an inconclusive call are fits to weak or partial responses and may not hold up. On the % scale 0 is the no-effect control and ±100 the full control effect; potency means the concentration at half of the fitted maximal effect; tags describe the fitted curve by direction and shape.", "data": [{"biological_target": "DNA dC->dU-editing enzyme APOBEC-3G (Homo sapiens) (UniProt Q9HC16)", "sequence (Q9HC16 whole entry, looked up)": "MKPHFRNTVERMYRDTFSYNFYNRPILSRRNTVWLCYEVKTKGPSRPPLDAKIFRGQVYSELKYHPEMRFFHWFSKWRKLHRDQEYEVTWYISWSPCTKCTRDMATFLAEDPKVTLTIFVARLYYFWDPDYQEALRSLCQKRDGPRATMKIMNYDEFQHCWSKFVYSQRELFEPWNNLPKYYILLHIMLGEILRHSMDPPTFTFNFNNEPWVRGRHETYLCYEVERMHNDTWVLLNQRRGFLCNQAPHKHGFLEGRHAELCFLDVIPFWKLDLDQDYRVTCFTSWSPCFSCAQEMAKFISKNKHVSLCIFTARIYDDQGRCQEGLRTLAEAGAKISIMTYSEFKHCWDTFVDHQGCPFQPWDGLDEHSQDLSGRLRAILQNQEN", "assay": "qHTS for Inhibitors of Vif-A3G Interactions: qHTS; further: nearly all actives have a fitted effect of over 60% in size;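 on activity, negative = active: hits raise eYFP signal because A3G escapes Vif-driven loss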", "conditions": "HeLa A3G-eYFP + Vif (tagged APOBEC3G with the HIV-1 protein that degrades it), YFP fluorescence, overnight; series mostly up to 46.1 µM; activity, negative = active: at the top concentration", "procedure,_shortened": "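Read-out is eYFP fluorescence (Ex 488/Em 500-530) from Vif-expressing HeLa A3G-eYFP cells; more signal means A3G escaped Vif-mediated degradation. Cells plated overnight, compound pinned in, incubated overnight at 37 deg C.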", "values": [{"molecule": "CC(=O)Nc1ccc(NC(=O)c2ccc(-c3ccnn3C)c3ccoc23)cc1", "Potency": "inconclusive: 31.6 µM [inhibitor, single point]"}, {"molecule": "N#C/C(=C/c1ccc2c(c1)OCO2)C(=O)Nc1ccc(O)cc1", "Potency": "inconclusive: 7.08 µM [inhibitor, partial curve, poor fit]"}, {"molecule": "Cc1nn(Cc2ccccc2)c2c1C(c1cccc(Cl)c1)C(C#N)=C(N)O2", "note": "(stereo unspecified)", "Potency": "inconclusive: 35.5 µM [inhibitor, single point]"}, {"molecule": "CN(NC(=O)c1ccccc1F)c1nc(C(F)(F)F)nc2ccccc12", "Potency": "inconclusive: 0.891 µM [inhibitor, partial curve, poor fit]"}, {"molecule": "O=C(N/N=C/c1ccc(OC(=O)c2ccccc2Cl)cc1)c1ccc(O)cc1", "Potency": "inconclusive: 35.5 µM [inhibitor, single point]"}, {"molecule": "Nc1ccc(CSc2ccc(Cl)cc2)c(Cl)c1", "activity, negative = active": "inactive: -24.5%"}, {"molecule": "CCOc1cc(C2C(C#N)=C(N)OC(C)=C2C(C)=O)cc(Br)c1O", "note": "(stereo unspecified)", "activity, negative = active": "inactive: -22.2%"}, {"molecule": "Cc1c(C(=O)N2CCOCC2)[nH]c2c1C(=O)CC(c1ccccc1Cl)C2", "note": "(stereo unspecified)", "Potency": "inconclusive: 1.78 µM [inhibitor, full curve]"}, {"molecule": "CCOC(=O)N1CCN(Cc2nc3cc(NC(=O)c4ccccc4Cl)ccc3n2C(C)C)CC1", "Potency": "inconclusive: 0.562 µM [inhibitor, full curve, poor fit]"}, {"molecule": "Cc1ccc(N/C(=N/S(=O)(=O)c2cccs2)c2ccccc2)c(C)c1", "Potency": "inconclusive: 22.4 µM [inhibitor, single point]"}, {"molecule": "O=C(Nc1cccc(NC(=O)c2ccc([N+](=O)[O-])o2)c1)c1ccco1", "Potency": "inconclusive: 6.31 µM [inhibitor, single point]"}, {"molecule": "CCOc1ccccc1N1CCN(C(=O)c2ccc3nc(N)sc3c2)CC1", "Potency": "inconclusive: 22.4 µM [inhibitor, single point]"}, {"molecule": "Cc1c(Cc2ccc3c(c2)OCO3)sc(NC(=O)c2ccc3ccccc3c2)c1C(N)=O", "Potency": "inconclusive: 25.1 µM [inhibitor, single point]"}, {"molecule": "COc1cccc(-n2cc(C(=O)Nc3cccc(C(F)(F)F)c3)c3ccccc3c2=O)c1", "activity, negative = active": "inactive: 3.71%"}, {"molecule": "O=C(Nc1nnc(-c2cc(Cl)ccc2Cl)o1)c1ccc2c(c1)OCCO2", "Potency": "inconclusive: 5.01 µM [inhibitor, single point]"}, {"molecule": "COc1cc(Cn2c3ccc(NC(=O)CC(C)c4ccccc4)cc3c(=O)n2C)ccc1F", "note": "(stereo unspecified)", "Potency": "inconclusive: 14.1 µM [inhibitor, single point]"}, {"molecule": "COc1ccc(NC(=O)CCS(=O)(=O)c2nc(-c3cccs3)cc(C(F)(F)F)n2)cc1", "Potency": "inconclusive: 22.4 µM [inhibitor, single point]"}, {"molecule": "CN(NS(=O)(=O)c1ccc(Br)cc1)c1nc(C(F)(F)F)nc2ccccc12", "activity, negative = active": "inactive: -0.783%"}, {"molecule": "COc1ccccc1CCC(=O)Nc1ccc2c(c1)c(=O)n(C)n2-c1cccs1", "Potency": "inconclusive: 1.26 µM [inhibitor, full curve, poor fit]"}, {"molecule": "O=C(N/N=C/c1ccsc1)c1cc(-c2ccncc2)nc2ccccc12", "Potency": "inconclusive: 7.08 µM [inhibitor, partial curve]"}, {"molecule": "Cc1nc2ccccn2c1-c1csc(Nc2cccc(O)c2)n1", "Potency": "inconclusive: 1.12 µM [inhibitor, full curve, poor fit]"}, {"molecule": "CN1CCN(C(c2ccc(F)cc2)c2ccc3cccnc3c2O)CC1", "note": "(stereo unspecified)", "activity, negative = active": "inactive: 0.0412%"}, {"molecule": "COc1cc(C2c3cc4c(cc3OC(Nc3ccc(C(=O)O)cc3)C2C)OCO4)cc(OC)c1OC", "note": "(stereo unspecified)", "Potency": "inconclusive: 0.316 µM [inhibitor, full curve, poor fit]"}, {"molecule": "Cc1ccc(S(=O)(=O)/N=C2/NC(=O)/C(=C/c3cccnc3)S2)cc1", "Potency": "inconclusive: 35.5 µM [inhibitor, single point]"}, {"molecule": "O=C(CN1C(=O)COc2ccc(S(=O)(=O)N3CCCCCC3)cc21)Nc1cccc(Cl)c1", "activity, negative = active": "inactive: 2.07%"}, {"molecule": "CC(/C=N/NC(=O)c1cccc(F)c1)=C\\c1ccccc1", "Potency": "inconclusive: 11.2 µM [inhibitor, partial curve, poor fit]"}, {"molecule": "COc1ccc(NC(=O)CCS(=O)(=O)c2nc(-c3ccc4c(c3)OCO4)cc(C(F)(F)F)n2)cc1", "Potency": "inconclusive: 35.5 µM [inhibitor, single point]"}, {"molecule": "S=C1Cc2ccccc2N1", "Potency": "inconclusive: 35.5 µM [inhibitor, single point]"}, {"molecule": "Cc1ccc2nc(-c3cccc(SC4CCCCC4)c3)c(NCc3ccccc3)n2c1", "activity, negative = active": "inactive: -0.747%"}, {"molecule": "Cc1ccc(NC(=O)c2ccc3c(c2)CCN3S(C)(=O)=O)cc1", "activity, negative = active": "inactive: -2.83%"}, {"molecule": "CC(=O)c1sc(NC(=O)CCS(=O)(=O)c2ccc(C)cc2)nc1C", "Potency": "inconclusive: 35.5 µM [inhibitor, single point]"}, {"molecule": "CC1=CC(=Nc2c(C)n(C)n(-c3ccccc3)c2=O)C=C(C)C1=O", "Potency": "inconclusive: 31.6 µM [inhibitor, single point]"}, {"molecule": "O=C(NC1CCCCC1)C1COc2ccccc2O1", "note": "(stereo unspecified)", "activity, negative = active": "inactive: -2.56%"}, {"molecule": "COc1ccc(OC)c(C2CC(=O)N3CN(c4cccc(Cl)c4C)CSC3=C2C#N)c1", "note": "(stereo unspecified)", "activity, negative = active": "inactive: 0.459%"}, {"molecule": "COc1cc(N2CCCC2)c(OC)cc1/C=C(/C#N)c1ccc(Br)cc1", "Potency": "inconclusive: 1.78 µM [inhibitor, full curve, poor fit]"}, {"molecule": "COc1cc(/C=C(\\C#N)c2nc3ccccc3[nH]2)ccc1OCc1ccc(F)cc1", "Potency": "inconclusive: 17.8 µM [inhibitor, single point]"}, {"molecule": "CNc1ccc(Br)cc(C(=O)/C=C/c2ccc(OC)cc2OC)c1=O", "Potency": "inconclusive: 35.5 µM [inhibitor, single point]"}, {"molecule": "CC(=O)CC[N+](C)(C)C", "activity, negative = active": "inactive: -0.507%"}, {"molecule": "COc1ccc(C(=O)c2sc(Nc3ccccc3)nc2C)cc1", "activity, negative = active": "inactive: -0.597%"}, {"molecule": "Nc1ccc(NC(=O)c2cccc(C(=O)Nc3ccc(N)cc3Cl)c2)c(Cl)c1", "Potency": "inconclusive: 4.47 µM [inhibitor, full curve, poor fit] and inconclusive: 12.6 µM [inhibitor, single point]"}, {"molecule": "COc1ccc(OC)c(NC(=O)CSc2nnc(-c3ccco3)n2-c2ccc(C(=O)O)cc2)c1", "Potency": "inconclusive: 35.5 µM [inhibitor, single point]"}, {"molecule": "CCOC(=O)/C=C/C(=O)OCC(=O)Nc1ccc(OC)c(Cl)c1", "Potency": "inconclusive: 35.5 µM [inhibitor, single point]"}, {"molecule": "CC1CCCCC1NC(=O)c1cc(S(=O)(=O)N2CCCCC2)ccc1N1CCOCC1", "note": "(stereo unspecified)", "activity, negative = active": "inactive: -0.652%"}, {"molecule": "O=C(CSc1ncnc2scc(-c3ccccc3)c12)NC1CCS(=O)(=O)C1", "note": "(stereo unspecified)", "activity, negative = active": "inactive: -0.213%"}, {"molecule": "C=CCN1C(=O)/C(=C\\c2ccc(OC(=O)c3ccco3)c(OC)c2)SC1=S", "Potency": "inconclusive: 25.1 µM [inhibitor, single point]"}, {"molecule": "Cc1ccc(CNC(=O)C(Cc2ccccc2)NS(=O)(=O)c2cccs2)cc1", "note": "(stereo unspecified)", "activity, negative = active": "inactive: 0.106%"}, {"molecule": "CCN1CCN(C(c2ccc(F)cc2)c2nnnn2Cc2cccs2)CC1", "note": "(stereo unspecified)", "activity, negative = active": "inactive: -5.61%"}, {"molecule": "Cc1[nH]n(-c2ccccc2)c(=O)c1/C=N\\NC(=O)C1COc2ccccc2O1", "note": "(stereo unspecified)", "Potency": "inconclusive: 11.2 µM [inhibitor, single point]"}, {"molecule": "Cc1ccc(C(=O)NC(=C(Cl)Cl)S(=O)(=O)c2ccccc2)cc1", "Potency": "inconclusive: 3.98 µM [inhibitor, full curve, poor fit]"}, {"molecule": "Cn1c2ccccc2c2cc(/C=N/NC(=O)c3ccccc3F)ccc21", "Potency": "inconclusive: 8.91 µM [inhibitor, partial curve, poor fit]"}, {"molecule": "CCN1CCc2c(sc(NC(=O)c3ccc(S(=O)(=O)N(CCOC)CCOC)cc3)c2C(N)=O)C1", "activity, negative = active": "inactive: -3.94%"}, {"molecule": "COc1cc(C)c(C)cc1S(=O)(=O)n1c(C)nc2ccccc21", "activity, negative = active": "inactive: -4.81%"}, {"molecule": "CN(C)CCNC(=O)c1ccc(-n2c(-c3ccccc3)cc3c2CCCCC3)cc1", "Potency": "inconclusive: 25.1 µM [inhibitor, single point]"}, {"molecule": "COc1ccc(CC(=O)N2N=C(c3ccncc3)CC2(O)C(F)(F)F)cc1", "note": "(stereo unspecified)", "Potency": "inconclusive: 5.01 µM [inhibitor, full curve]"}, {"molecule": "O=C(NNc1ncnc2c1cnn2-c1cccc(Cl)c1)c1ccco1", "activity, negative = active": "inactive: -14.3%"}, {"molecule": "COC(=O)c1cnc(Oc2ccc(NC(=O)NC(=O)c3c(F)cccc3Cl)cc2)cc1C(F)(F)F", "Potency": "inconclusive: 3.55 µM [inhibitor, partial curve, poor fit]"}, {"molecule": "COc1ccc(S(=O)(=O)c2c(Nc3c(C)cccc3C)sc(C(=O)c3ccc(F)cc3)c2N)cc1", "activity, negative = active": "inactive: -20.7%"}, {"molecule": "O=C(O)CCCN1C(=O)/C(=C/c2cn(-c3ccccc3)nc2-c2cccs2)SC1=S", "Potency": "inconclusive: 35.5 µM [inhibitor, single point]"}, {"molecule": "Cc1ccc(NC(=O)c2ccccc2[N+](=O)[O-])nc1", "Potency": "inconclusive: 28.2 µM [inhibitor, single point]"}, {"molecule": "Oc1ccc(/C=N/NC(=S)NC2CC3CCC2C3)cc1", "note": "(stereo unspecified)", "activity, negative = active": "inactive: -0.387%"}, {"molecule": "COc1ccc(Cc2nnc(NC(=O)c3cc(OC)c(OC)c(OC)c3)s2)cc1", "Potency": "inconclusive: 7.08 µM [inhibitor, partial curve, poor fit]"}, {"molecule": "O=C(COC(=O)c1ccccc1)Nc1ncc([N+](=O)[O-])s1", "activity, negative = active": "inactive: -3.66%"}, {"molecule": "C/C(N)=C(/C#N)C(=O)CSc1nc2ccccc2c(=O)n1Cc1ccc(C)cc1", "Potency": "inconclusive: 17.8 µM [inhibitor, single point]"}, {"molecule": "Cc1nc2ccn(Cc3cccs3)c(=O)c2cc1C(=O)NCc1ccc(Br)cc1", "Potency": "inconclusive: 15.8 µM [inhibitor, single point]"}, {"molecule": "CCNc1ccc(C(=O)OCC)cc1NC(=O)c1cccc(N(C)C)c1", "Potency": "inconclusive: 1.41 µM [inhibitor, full curve, poor fit]"}, {"molecule": "CCOC(=O)c1c(-c2ccccc2)csc1NC(=O)/C(C#N)=C\\c1ccc(O)c(OC)c1", "Potency": "inconclusive: 3.55 µM [inhibitor, single point]"}]}]}
